The values that follow come from article PMC11079024, “Identification of a family of species-selective complex I inhibitors as potential anthelmintics” (Nature Communications, 2024).

“And” between values parts separate entries of the source, which are not always exact repeats. Equal entries are not always repeated. Where two headings read alike, the source gives them in different places.

The test system of series [1] is L1 wild-type C. elegans (N2). The note with it: for LC50: caenorhabditis elegans.
For series [2], the system named is L1 wild-type C. elegans (N2). Nature of the series: microbe, parasite or virus in culture. The note with it: Caenorhabditis elegans; for viability at 0.2 µM: read-out: C. elegans L1 development and viability (6-day growth), dose 0.2 µM; for viability at 0.8 µM: read-out: C. elegans L1 development and viability (6-day growth), dose 0.8 µM; for viability at 3.1 µM: read-out: C. elegans L1 development and viability (6-day growth), dose 3.1 µM; for viability at 6.3 µM: read-out: C. elegans L1 development and viability (6-day growth), dose 6.3 µM; for viability at 12.5 µM: read-out: C. elegans L1 development and viability (6-day growth), dose 12.5 µM; for viability at 50 µM: read-out: C. elegans L1 development and viability (6-day growth), dose 50 µM; for viability at 200 µM: read-out: C. elegans L1 development and viability (6-day growth), dose 200 µM; for viability at 1 µM: read-out: C. elegans L1 development and viability (6-day growth), dose 1.000 µM; for viability at 15.6 µM: read-out: C. elegans L1 development and viability (6-day growth), dose 15.600 µM; for viability at 31.3 µM: read-out: C. elegans L1 development and viability (6-day growth), dose 31.300 µM; for viability at 62.5 µM: read-out: C. elegans L1 development and viability (6-day growth), dose 62.500 µM; for viability at 500 µM: read-out: C. elegans L1 development and viability (6-day growth), dose 500.000 µM.

Where [3] appears, read: 144 h, read-out: C. elegans (Wild type) Development & Viability Assay LC50.
Where [4] appears, read: 144 h, individual replicate (Rep).
The mark [5] stands for this setting: dose 0.2 µM, individual replicate (Rep).
[6] abbreviates: dose 6.3 µM, individual replicate (Rep).
The mark [7] stands for this setting: dose 25 µM, individual replicate (Rep).
The mark [8] stands for this setting: dose 100 µM, individual replicate (Rep).
The mark [9] stands for this setting: read-out: C. elegans (Wild type) Development & Viability Assay LC50.
[10] abbreviates: read-out: C. elegans Wt viability log10 LC50 (converted).
Setting [11] is: read-out: C. elegans Wt viability LC50.

For the compound `O=C1OC(c2ccccc2)=NC1=CC=Cc1ccccc1` (mixture of isomers) [NPD8298], the LC50 in series [1] was over 100 µM.

In series [1], `CCCCCCCCCCCCCCCc1cccc(O)c1C(=O)O` [Anacardic acid] registered an LC50 of over 100 µM.

With `O=C(/C=C/c1ccccc1)/C=C/c1ccccc1` [FSL0005], the median lethal concentration (LC50) in series [1] turned out to be 4.18 µM.

For `Fc1ccc(C(c2ccc(F)cc2)N2CCN(C/C=C/c3ccccc3)CC2)cc1` [Flunarizine, reference compound], the “C. elegans L1 development and viability (6-day growth)” value in series [1] (N2, Caenorhabditis elegans, 6 days, 0.4 µM) came out at 0.943. The “C. elegans L1 development and viability (6-day growth)” value in series [1] (N2, Caenorhabditis elegans, 6 days, 0.8 µM) is given as 0.931. Further, the “C. elegans L1 development and viability (6-day growth)” value in series [1] (N2, Caenorhabditis elegans, 6 days, 3.1 µM) was 0.847. For the same compound, the “C. elegans L1 development and viability (6-day growth)” value in series [1] (N2, Caenorhabditis elegans, 6 days, 12.5 µM) was found to be 0.870. Also, the “C. elegans L1 development and viability (6-day growth)” value in series [1] (N2, Caenorhabditis elegans, 6 days, 25 µM) was 0.886. Further, the “C. elegans L1 development and viability (6-day growth)” value in series [1] (N2, Caenorhabditis elegans, 6 days, 50 µM) is recorded as 0.949. Besides, the 50% lethal concentration (LC50) in series [2] (setting [3]) was over 200 µM. In addition, in series [2] (144 h, Mean of replicates), the viability at 0.2 µM is 93.8%, the viability at 0.8 µM is 97.7%, the viability at 3.1 µM was determined as 94.9% and the viability at 6.3 µM stood at 97.5%. For the same compound, in series [2] (144 h, Mean of replicates), the viability at 12.5 µM was 95.7%, the viability at 50 µM is 98.3% and the viability at 200 µM came to 100%. Besides, in series [2] (setting [4]), the viability at 0.2 µM came to 96.4%, the viability at 0.8 µM came out at 100%, the viability at 3.1 µM was found to be 100% and the viability at 6.3 µM was determined as 100%. Moreover, in series [2] (setting [4]), the viability at 12.5 µM stood at 100%, the viability at 50 µM amounted to 100% and the viability at 200 µM was determined as 100%. Besides, the viability at 0.4 µM in series [2] (144 h, read-out: C. elegans L1 development and viability (6-day growth), dose 0.4 µM, individual replicate (Rep)) worked out at 100%. In series [2] (144 h, read-out: C. elegans L1 development and viability (6-day growth), dose 25 µM, individual replicate (Rep)), the viability at 25 µM was found to be 100%. The viability at 100 µM in series [2] (144 h, read-out: C. elegans L1 development and viability (6-day growth), dose 100 µM, Mean of replicates) turned out to be 93%.

As to `O=C(CCCN1C(=O)c2cccc3cccc(c23)C1=O)N1CCN(Cc2ccc3c(c2)OCO3)CC1` [HTD0465], the 50% lethal concentration (LC50) in series [1] came out at 35.3 µM.

In series [1], `COc1ccc(-c2cc(=Nc3ccc(C)cc3)c3ccccc3o2)cc1OC` [NPD1450] came in with a median lethal concentration (LC50) of over 100 µM.

Regarding `CC1(C#CCN2CCCCCC2)CCC2C(O1)c1ccccc1OC2(C)C` (centres unmarked) [NPD5219], the median lethal concentration (LC50) in series [1] came to 38.7 µM.

`Cc1cc(O)c(C(=O)/C=C/c2ccc(C(C)C)cc2)c(=O)o1` [NPD6240]: the LC50 in series [1] was over 100 µM.

`COc1ccc(-c2cc(=Nc3ccccc3N)c3ccccc3o2)cc1` [NPD6380] gave a median lethal concentration (LC50) in series [1] of over 100 µM. Besides, the “C. elegans L1 development and viability (6-day growth)” value in series [1] (setting [5]) was 0.984; in series [1] (dose 3.1 µM, individual replicate (Rep)) it was 0.953; in series [1] (setting [6]) it was 0.996; in series [1] (setting [7]), 0.996; in series [1] (setting [8]), 0.837 and 0.905.

As to `COc1ccc(N=c2cc(-c3ccc(OC)cc3)oc3ccc(O)cc23)cc1` [NPD8034], in series [1], the LC50 is over 100 µM.

In the case of `Cc1cc(O)c(C(=O)/C=C/c2ccccc2)c(=O)o1` [NPD8366], the median lethal concentration (LC50) in series [1] is over 100 µM.

On to `O=C(Nc1ccc([N+](=O)[O-])cc1Cl)c1cc(Cl)ccc1O` [Niclosamide], for which, in series [2] (setting [3]), the 50% lethal concentration (LC50) was over 1000 µM. Also, in series [2] (144 h, Mean of replicates), the viability at 1 µM worked out at 95.1%, the viability at 15.6 µM is 96.5%, the viability at 31.3 µM worked out at 96.7% and the viability at 62.5 µM was determined as 98.1%. For the same compound, the viability at 500 µM in series [2] (144 h, Mean of replicates) worked out at 93.6%. Besides, in series [2] (setting [4]), the viability at 1 µM came to 100%, the viability at 15.6 µM was 100%, the viability at 31.3 µM stood at 100% and the viability at 62.5 µM worked out at 100%. The viability at 500 µM in series [2] (setting [4]) came to 100%. In addition, the viability at 2 µM in series [2] (144 h, read-out: C. elegans L1 development and viability (6-day growth), dose 2.000 µM, Mean of replicates) was 95.1%. In series [2] (144 h, read-out: C. elegans L1 development and viability (6-day growth), dose 3.900 µM, Mean of replicates), the viability at 3.9 µM stood at 92.6%. Also, in series [2] (144 h, read-out: C. elegans L1 development and viability (6-day growth), dose 250.000 µM, Mean of replicates), the viability at 250 µM is 92.3%.

Regarding `CCc1ccc(-c2cc(C(=O)Nc3nccs3)c3ccccc3n2)cc1` [STK418118], in series [1], the 50% lethal concentration (LC50) came to 43.3 µM.

Regarding `CCc1ccc(CNc2nc3ccccc3n2C)cc1` [STK498539], the LC50 in series [2] (setting [9]) and in series [2] (setting [10]) was 222 µM in each case.

With `c1ccc(-c2noc(CCCCc3nc4ccccc4[nH]3)n2)cc1` [STK633241], the median lethal concentration (LC50) in series [2] (setting [9]) is over 1000 µM; in series [2] (setting [11]), over 500 µM; in series [2] (setting [10]) it was over 500 µM.

As for `C(=C\c1nc2ccccc2[nH]1)/c1ccccc1` [STK871091], the 50% lethal concentration (LC50) in series [2] (setting [9]) and in series [2] (setting [10]) was 171 µM in each case.

Consider `CCc1ccc(OC(C)c2nc3ccccc3[nH]2)cc1` (centres unmarked) [STK914290], for which the median lethal concentration (LC50) in series [2] (setting [9]) and in series [2] (setting [10]) was 256 µM throughout.

Consider `CCn1c(C(C)c2ccc(CC(C)C)cc2)nc2ccccc21` (centres unmarked) [STK951902], for which the 50% lethal concentration (LC50) in series [2] (setting [9]) and in series [2] (setting [10]) was 594 µM each time.

As to `CC(C)Cc1ccc(C(C)c2nc3ccccc3n2C(C)C)cc1` (centres unmarked) [STK951903], the median lethal concentration (LC50) in series [2] (setting [9]) is over 1000 µM; in series [2] (setting [11]), over 500 µM; in series [2] (setting [10]) it was over 500 µM.

In the case of `C=CCn1c(C(C)c2ccc(CC(C)C)cc2)nc2ccccc21` (centres unmarked) [STL020755], the LC50 in series [2] (setting [9]) and in series [2] (setting [10]) was 325 µM throughout.

Consider `c1ccc(CCCCCCCCCCc2nc3ccccc3[nH]2)cc1` [STL442376], for which the values for the LC50 in series [2] (setting [9]) and in series [2] (setting [10]) were 584 µM and 583 µM, respectively.

With `Cc1ccc2nc(C(C)c3ccc(CC(C)C)cc3)[nH]c2c1` (centres unmarked) [STL482096], the results for the median lethal concentration (LC50) in series [2] (setting [9]), in series [2] (setting [11]) and in series [2] (setting [10]) were over 1000 µM, over 500 µM and over 500 µM, respectively.

On to `c1ccc2[nH]c(-c3cscn3)nc2c1` [Thiabendazole], for which the LC50 in series [2] (setting [11]) is 125 µM.

In series [1], `O=C(NCCc1ccc(Cl)cc1)c1ccccc1C(F)(F)F` [Wact-11] registered an LC50 of 0.42 µM. Besides, the “C. elegans L1 development and viability (6-day growth)” value is 0.955 and 0.982 in series [1] (setting [5]); 0.818 in series [1] (dose 0.4 µM, Mean of replicates); 0.557 in series [1] (dose 0.8 µM, Mean of replicates); 0.003 in series [1] (dose 3.1 µM, Mean of replicates); 0.000 in series [1] (dose 6.3 µM, Mean of replicates); 0.000 in series [1] (setting [6]). Also, the “C. elegans L1 development and viability (6-day growth)” value was 0.000 in series [1] (dose 12.5 µM, Mean of replicates); 0.000 in series [1] (dose 12.5 µM, individual replicate (Rep)); 0.000 in series [1] (dose 25 µM, Mean of replicates); 0.000 in series [1] (setting [7]); 0.0005 in series [1] (dose 50 µM, Mean of replicates); 0.000 in series [1] (dose 100 µM, Mean of replicates). Further, the “C. elegans L1 development and viability (6-day growth)” value in series [1] (setting [8]) is 0.000.

Take `COC(=O)Nc1nc2ccc(Sc3ccccc3)cc2[nH]1` [fenbendazole, reference compound]: the LC50 in series [2] (setting [11]) was 37.5 µM.

For the compound `COC(=O)Nc1nc2ccc(C(=O)c3ccccc3)cc2[nH]1` [mebendazole, reference compound], in series [2] (setting [11]), the median lethal concentration (LC50) was determined as 28.2 µM.
